Test results reported in EP4209511A1.

Target: T1, Human CD84 produced by mammalian cells (human) (UniProt Q9UIB8)
T1 sequence (looked up): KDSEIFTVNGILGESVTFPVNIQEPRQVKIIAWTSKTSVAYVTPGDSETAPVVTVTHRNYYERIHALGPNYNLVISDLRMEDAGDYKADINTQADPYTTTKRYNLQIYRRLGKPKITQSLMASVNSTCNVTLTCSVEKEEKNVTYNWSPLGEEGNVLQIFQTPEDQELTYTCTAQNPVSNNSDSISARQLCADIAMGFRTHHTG
Assay: monoclonal phage ELISA, plate coated with CD84 antigen, anti-phage HRP antibody

B1: R3-B3 (scFv)
scFv: [about 100 residues left out]WDCSDGRCYWAYWGQGTLVTVSSGGGGSGGGGSGGGGSGGGGASQPVLTQPPSVSVAPGQTARISCGGDNIESKDVHWYQRKSGQAPVLVVHDDADRPTGIPDRFSGSNSGNTATLTISRVEAGDEADYYCQVWDSSSDHVVFGGGTQLTVL
ELISA signal on antigen (Ag), read at 450 nm (absorbance at 450 nm): 0.506
